Values joined by “and” are separate entries in the source; they are usually repeats but may differ in a detail not shown here. Equal entries are not always repeated. About 31,000 (8.9%) of roughly 350,000 compounds were called active. Inconclusive results, whose numbers are uncertain, are shown with a selection of clear calls. Calls come from the whole dose curve; as a rule, active = well fitted inhibition curve with a large enough effect; inconclusive = small, poorly fitted or top-dose-only effect; inactive = no such curve, though single readings can be large or run the other way. A potency beside an inconclusive call is a rough fit, not a confirmed value.
biological target: Histone-lysine N-methyltransferase EHMT2 (Homo sapiens) (UniProt Q96KQ7); assay: qHTS Assay for Inhibitors of Histone Lysine Methyltransferase G9a; conditions: G9a H3K9 monomethylation, AlphaScreen, 2 h; activity, negative = inhibition: at 59 µM (top of the series) unless noted; note: nearly all actives have a fitted effect of over 75% in size
UniProt Q96KQ7, sequence (Q96KQ7 whole entry, looked up): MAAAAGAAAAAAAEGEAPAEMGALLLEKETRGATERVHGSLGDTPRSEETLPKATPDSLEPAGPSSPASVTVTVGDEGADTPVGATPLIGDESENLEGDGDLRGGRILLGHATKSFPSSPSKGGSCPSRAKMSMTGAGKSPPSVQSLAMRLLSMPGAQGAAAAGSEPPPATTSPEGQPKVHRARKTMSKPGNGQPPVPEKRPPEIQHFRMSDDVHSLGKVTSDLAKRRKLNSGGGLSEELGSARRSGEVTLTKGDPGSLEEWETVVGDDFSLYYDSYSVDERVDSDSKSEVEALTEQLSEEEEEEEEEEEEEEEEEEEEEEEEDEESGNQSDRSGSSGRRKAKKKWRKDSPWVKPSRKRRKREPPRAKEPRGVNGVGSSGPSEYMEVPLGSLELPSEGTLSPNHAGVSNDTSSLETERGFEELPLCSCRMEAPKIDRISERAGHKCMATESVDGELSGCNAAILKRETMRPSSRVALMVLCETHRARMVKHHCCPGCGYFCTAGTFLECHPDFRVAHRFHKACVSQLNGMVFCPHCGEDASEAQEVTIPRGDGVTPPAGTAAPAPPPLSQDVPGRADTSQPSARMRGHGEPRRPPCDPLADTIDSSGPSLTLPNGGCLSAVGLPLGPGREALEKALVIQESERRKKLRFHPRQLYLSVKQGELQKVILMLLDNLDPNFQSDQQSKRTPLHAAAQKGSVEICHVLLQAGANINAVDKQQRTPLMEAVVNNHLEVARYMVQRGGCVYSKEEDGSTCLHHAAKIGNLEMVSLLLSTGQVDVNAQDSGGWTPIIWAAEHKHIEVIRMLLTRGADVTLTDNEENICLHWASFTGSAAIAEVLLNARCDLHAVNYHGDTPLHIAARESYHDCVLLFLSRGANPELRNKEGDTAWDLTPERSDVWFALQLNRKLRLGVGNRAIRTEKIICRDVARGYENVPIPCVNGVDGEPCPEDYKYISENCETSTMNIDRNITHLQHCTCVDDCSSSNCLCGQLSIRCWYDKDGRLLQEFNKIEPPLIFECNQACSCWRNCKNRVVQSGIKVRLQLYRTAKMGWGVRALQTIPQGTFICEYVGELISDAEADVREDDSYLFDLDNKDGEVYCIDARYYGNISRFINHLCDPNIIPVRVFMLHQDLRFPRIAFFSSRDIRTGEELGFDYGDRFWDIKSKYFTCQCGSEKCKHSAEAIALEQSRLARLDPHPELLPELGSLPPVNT
Method in brief: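 Enzyme 20 nM + cpd, 15 min RT; add b-H3K9 pep 500 nM / SAM 20 uM; 2 h RT; anti-H3K9me1 Ab 0.5 ug/mL + SA donor / anti-rabbit acceptor beads 20 ug/mL each, 10 min; AlphaScreen read.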
% is set by controls: 0 for no effect and ±100 for the full control effect; potency is the fitted concentration of half-maximal effect; tags give direction and shape of the fitted curve.

Row | SMILES | Potency | activity, negative = inhibition
1 | COc1ccc(CC2C(=O)NC(=O)NC2=O)c(OC)c1 | inconclusive: 22.4 µM [inhibitor, single point] | –
2 | CCCCc1nc2ccccc2c(=O)n1-c1ccccc1[N+](=O)[O-] | inconclusive: 89.1 µM [inhibitor, single point] | –
3 | CNC(=O)OCC[N+](C)(C)C | – | inactive: 79.4% [at 12.7 µM]
4 | O=C(O)CC1OCC=C2CN3CCC45c6ccccc6NC4C1C2CC35 (stereo not drawn) | inactive | –
5 | CCC(CC)NCc1c[nH]c2ccccc12 | active: 14.1 µM | –
6 | O=C(CSc1oc(-c2ccccc2)nc1S(=O)(=O)c1ccc(Cl)cc1)Nc1ccc(F)cc1 | inconclusive: 28.2 µM [inhibitor, single point] | –
7 | CC(NCC#Cc1ccccc1)C(O)c1ccccc1 (stereo not drawn) | inconclusive: 89.1 µM [inhibitor, partial curve, poor fit] | –
8 | Cc1cccc(-n2c(=S)[nH]c3ccccc3c2=O)n1 | inconclusive: 79.4 µM [inhibitor, partial curve, poor fit] | –
9 | COc1cc(C(=O)OCc2cc(=O)c(O)co2)ccc1OC(F)F | inconclusive: 79.4 µM [inhibitor, single point] | –
10 | C[C@]12CC[C@@H]3c4ccc(O)c(O)c4CC[C@H]3[C@@H]1CC[C@@H]2O | inconclusive: 0.708 µM [inhibitor, full curve, poor fit] | –
11 | CC(N)C(=O)OC(C)(C)Cc1ccc(Cl)cc1 (stereo not drawn) | inactive | –
12 | c1ccc(-c2ccc(-c3n(-c4ccccn4)c4ccccc4[n+]3-c3ccccn3)cc2)cc1 | active: 35.5 µM | –
13 | CCOP(=O)(Cc1ccc(C#N)o1)OCC | inconclusive: 10 µM [inhibitor, full curve, poor fit] | –
14 | COc1ccc2[nH]cc(C3=CCNCC3)c2c1 | inconclusive: 15.8 µM [inhibitor, partial curve, poor fit] | –
15 | CC(=O)OCC(N)C(=O)c1ccccc1 (stereo not drawn) | inconclusive: 14.1 µM [inhibitor, partial curve, poor fit] | –
16 | CN(C)c1ccc(C2C3C=CC(C3)C2(C#N)C(=O)O)c(Br)c1 (stereo not drawn) | inconclusive: 89.1 µM [inhibitor, single point] | –
17 | COc1ccc(C=C2C(=O)N(C)C(=O)N(C)C2=O)cc1CSc1ccccn1 | active: 44.7 µM | –
18 | C#C[C@@]1(O)CCC2C3CCC4=C/C(=N/OCC(=O)NC(C(=O)NC(CC(C)C)C(=O)O)C(C)C)CC[C@]4(C)C3CC[C@@]21C (stereo partly drawn) | inactive | –
19 | Fc1ccc2c(c1)nnn2C1CCN(Cc2nnnn2CCc2ccccc2)CC1 | active: 50.1 µM | –
20 | CCN(CC)CCOc1ccccc1C(=O)CCc1ccccc1 | inconclusive: 2.24 µM [inhibitor, partial curve, poor fit] | –
21 | C=CCn1c(O)c(C(CC)=Nc2cc(OC)ccc2OC)c(=O)[nH]c1=O | inconclusive: 1.78 µM [inhibitor, full curve, poor fit] | –

Row | SMILES | Potency | activity, negative = inhibition
22 | O=[N+]([O-])c1cc(S(=O)(=O)c2ccc(O)c([N+](=O)[O-])c2)ccc1O | inconclusive: 39.8 µM [inhibitor, single point] | –
23 | COc1ccc2c(c1)CCc1c(C(=O)Nc3c(C)nn(Cc4ccccc4C)c3C)noc1-2 | inconclusive: 0.316 µM [inhibitor, full curve, poor fit] | –
24 | COc1ccc(Cl)cc1NC(=O)CN1C(=O)CN=C(c2ccccc2)c2cc(Cl)ccc21 | inconclusive: 20 µM [inhibitor, partial curve, poor fit] | –
25 | CC[n+]1c(-c2ccccc2)c2cc(N)ccc2c2ccc(N)cc21 | active: 12.6 µM | –
26 | CC(C)c1ccc(-n2c(O)c(/C=N/NC(=O)c3ccncc3)c(=O)[nH]c2=O)cc1 | active: 17.8 µM | –
27 | CC1(C)C2([N+](=O)[O-])CN3CC1([N+](=O)[O-])CN(C2)C3c1ccccn1 (stereo not drawn) | inconclusive: 89.1 µM [inhibitor, single point] | –
28 | CC(n1cc(C[C@H](N)C(=O)O)c2ccccc21)n1cc(C[C@H](N)C(=O)O)c2ccccc21 | inactive | –
29 | CCC(=O)N1N=C(c2c(O)n(C)c(=O)n(C)c2=O)CC1c1ccccc1 (stereo not drawn) | active: 25.1 µM | –
30 | C=CC[N+]1(C)CC[C@]23c4c5ccc(O)c4O[C@H]2C(=O)CC[C@@]3(O)[C@H]1C5 (stereo partly drawn) | active: 1.58 µM | –
31 | CCCCn1c(O)c(C(CC)=NCCCN(C)C)c(=O)[nH]c1=O | – | inconclusive: -73% [inhibitor]
32 | Cc1cc(/C=C2\C(=O)NC(=O)N(c3ccc(F)cc3)C2=O)c(C)n1-c1cccc(C(=O)O)c1 | active: 35.5 µM | –
33 | C[C@H]1CN(C2CCC(C#N)(c3ccc(F)cc3)CC2)CC[C@@]1(C(=O)O)c1ccccc1 (stereo partly drawn) | inactive | –
34 | Cc1nc2cc(C(F)(F)F)ccc2n1C1CCN(Cc2nnnn2CCc2ccccc2)CC1 | inactive | –
35 | Cc1cc(C)n2nc(SC(C)C(=O)N3CCC4(CC3)OCCO4)nc2n1 (stereo not drawn) | inactive | –
36 | O=P(C(=Nc1ccc(Cl)cc1)N1CCOCC1)(N1CCOCC1)N1CCOCC1 | inconclusive: 20 µM [inhibitor, single point] | –
37 | CCCCCn1c(SCCCC)nc2c1c(=O)[nH]c(=O)n2C | inconclusive: 3.16 µM [inhibitor, single point] | –
38 | CN1C(=O)C(=Cc2cn(CC(=O)N3CCCCC3)c3ccccc23)C(=O)N(C)C1=O | inconclusive: 89.1 µM [inhibitor, single point] | –
39 | O=C1NC(=O)N(Cc2ccco2)C(=O)/C1=C\c1cccn1CCOc1ccc(Cl)cc1 | inactive | –
40 | O=C(COC(=O)Cc1ccccc1)NNC(=O)c1ccc([N+](=O)[O-])cc1 | – | inactive: 14.7% [at 12.7 µM]
41 | CCN(CC)Cc1cc(Nc2ccnc3cc(Cl)ccc23)ccc1O | inconclusive: 3.98 µM [inhibitor, partial curve, poor fit] and inconclusive: 15.8 µM [inhibitor, partial curve, poor fit] | inactive: 6.91% [at 12.7 µM]
42 | CN1C(=O)/C(=C/c2cccn2-c2ccc3ccccc3c2)C(=O)NC1=S | inconclusive: 2.82 µM [inhibitor, partial curve, poor fit] | –

— PubChem BioAssay AID504332 (National Center for Advancing Translational Sciences (NCATS), 2011)
